Results as given in the RNAGym collection of RNA variant scans (doi:10.7554/elife.90254).
The source gives no read counts; variants with many changes may rest on few reads.

B1: LINE1-mini (parent)
chain: GGCAGAGCUCAACACAGCGUGGCAAAGUGGCUGUGGCUAGACUGCC

Variants of: B1
Experiment: self-cleavage, relative activity (ratio to wild type); higher = more cleavage; in vitro, sequencing; the parent is a self-cleaving ribozyme

Variant | self-cleavage
U9C A14G G22C U38G C42A C45A | 0
U9A G22C C37U C45A C46A | 0.08
U9C A11G G27A | 0.08
U9C A14C G22C C37A G40U | 0.01
U9C A12C U20G A25G | 0.02
U9A A14U G22C G36U | 0.17
U9A C15U A16C | 0.1
U9A A25U C46U | 0.13
U9A A16C C18G G44A C45U | 0.06
U9C A11U A12C A16U G19A | 0.02
U9A G17U G27C | 0.05
U9A C10U C18G G40U | 0.14
U9A G27U U34A C42G C46G | 0.03
U9A A11G A14C | 0.02
U9A C10A A12U G17C G27U A39C | 0
U9A A16U C42A | 0.06
C8U U38C C46A | 0.77
U9A C13G G40C | 0.07
U9A C13A G44C | 0.14
U9C A14U C23G A25U U38C | 0.01
U9A G22A A26C C45U | 0.22
U9A A16C G21U G22U U34G U38G A41G | 0.02
U9C C10A A16C G19U A24G G33A C37U C42A | 0
U9C A26C G36A U43C | 0.02

Variant | self-cleavage
U9A U20C C42U | 0.11
U9C A12G U28C | 0.01
U9C A12C C18U G22C A41U | 0.02
U9A C15A G21C C31A | 0.08
U9A U20C G29C U43G | 0.02
U9A A11U U20G | 0.01
U9C A24C U32A C42U U43A | 0
U9A U20A G29C | 0.04
U9A G21C G27C G30A | 0.01
U9A U28A C42A | 0.23
U9C A11C C18A G44U | 0.02
U9A G29C C37G C45A | 0.05
U9A C15G G29A G35A | 0.11
U9A G17U G19C U34G G44C | 0.02
U9A G17C G22U G29C G30A | 0.11
U9A A25G G30U C45U | 0.08
U9C A11C U28G | 0.03
U9A A11G U32A A41U | 0.02
U9A U20G G36A | 0.26
U9A G17A C18A | 0.01
U9C A24C G29U | 0.14
U9C A11G G27C G36U G40A C42G C45A | 0.01
U9A A12U C13A U28G G30C G35C | 0.14
U9C A16U A25U C46G | 0.01

Variant | self-cleavage
U9A G36A G40A | 0.13
U9A C15A U32G C37A | 0.2
U9A U28A G30U C42G | 0.11
U9A C18U U32G C46A | 0.3
U9A C13A G19C | 0.06
U9C A12G G35A U43A | 0.04
U9A A11U A16U U20C G22A | 0.02
U9C A16C C23G | 0.01
U9A A11U G29U | 0.01
U9A G29A G30U U32A G40C C45U | 0.28
U9A A16G G35U C42A | 0.03
U9A G22U A26C G40A | 0.11
U9A C13G G19A A26C A39U C46A | 0.15
U9A A25U A41U G44A C45G | 0.17
U9A A11G G17U | 0.01
U9A C15U A16U A26C G36A | 0.04
U9A C10U A16C G35U | 0.02
U9A G19A U32G C46A | 0.03
U9A A16U A25U C31A | 0.01
U9A G29U C31A G33A | 0.02
U9C A14C G17A G21U G40C A41G | 0.01
U9A G19A G29U | 0.16
U9A A25G G29C | 0.07
U9C A12G C13A U20C G35C | 0.01

Variant | self-cleavage
U9C A11C G29U | 0.03
U9A G33A G35A | 0.11
U9C C10A G17C U20G A39G | 0.01
U9A G29U U32C C42A | 0.22
U9A G19U U28G G40U | 0.03
U9A G21A U28C A41U | 0.27
U9C C10A G36A | 0.01
U9C A26C G30C G36U A39U C42A | 0.01
U9C A11U G29U | 0.01
U9C A11C G21A | 0.02
U9A G17A A26G C42A C45U | 0.02
U9A G40U C46A | 0.42
U9A U20G U32G G36U | 0.05
U9A G19A A41U | 0.1
U9A G17U G35C U38A | 0
U9A C10A A39C G40C C42G | 0.01
U9A G21A G30U A41G U43C | 0
U9A C10A A11C | 0.02
U9A G21U C37A | 0.11
U9A C31G G36U | 0.03
U9A C31G G36C | 0.01
U9A C31A G44A | 0.02
U9A A26U G35A C42G | 0.1
U9C A16C A39U | 0

Variant | self-cleavage
U9A C18G C45G | 0.08
U9A A11C A14C A25G | 0.01
U9A G29A C42G C46G | 0.01
U9A C23A C31A A39G C46U | 0.01
U9A C15A A24G A39G | 0.1
U9A G22C G30A A41U | 0.11
U9C A11U A25U | 0.01
U9A C31G U32G | 0.19
U9A A25C G35U C42G | 0.01
U9C A12C G27A A41C U43A | 0.01
U9A C15G U28G G40A C46G | 0.07
U9C A11G G21U A39C | 0
U9C A16U A26U U32A | 0.02
U9A A11C U43A | 0.01
U9A A16G G36C | 0.01
U9A A14U G22U C45U | 0.27
U9A C13U G35U | 0.09
U9A A25U A26G | 0.08
U9A C31U C45A | 0.02
U9A C37G G44U | 0.12
U9C A16G U32G | 0.01
U9A C18U G19U C37U | 0.11
U9A A14C A26G | 0.02
U9A G27U G44U C45A | 0.01

Variant | self-cleavage
U9A A12C C37A A41G | 0.04
U9A C13A G27U | 0.22
U9C A12C G33U U34G | 0.01
U9A U20G A41U | 0.14
U9A C31U G40U | 0
U9A C13U C37A C46A | 0.68
U9A C15U G17A | 0.49
U9C A11U G19U | 0.03
U9A C10U A24U G33A U34C | 0.02
U9C A12U A25G G35C | 0.01
U9A C15U C37A | 0.52
U9A C10G A26U C42A | 0.01
U9A G17A G21A U38A | 0.15
U9A G17A G27A | 0.1
U9A A16G C23G U34C | 0.11
U9A A16G C37A | 0.07
U9A A24U A25U G35C G36C | 0.02
U9C A11C U20C A25G | 0
U9A C10A C15A U43A | 0
U9A G19C U20G G29C G44U | 0.03
U9A A14C C45U | 0.16
U9A C23U G30U A41U | 0.05
U9C C10A A12G G27A | 0.04
U9A C10U A14G C23G U28G G35A | 0.1

Variant | self-cleavage
U9A G33A C37A A41U | 0.13
U9A G21U U28G | 0.09
U9A A24G A26C U28G | 0.13
U9C A16C G22U | 0.03
U9A A12C G36A C37U | 0.07
U9A C10U C46A | 0.08
U9A C13A G30U G35U G36A U38C C42G U43C C46U | 0.09
U9A G29A G36U | 0.26
U9A C10U G22A | 0.07
U9A A14U C23U C42U | 0.03
U9A A12C U34C | 0.01
U9A C13A U20A C23U | 0.12
U9A G21U U32C G36C | 0.04
C8U U34G G44U | 0.06
U9A U20G U28G | 0.25
U9C A16U C18U G29C | 0.03
U9A C13A G22C C46U | 0.16
U9A A24U A25U G35A | 0.16
U9A C15G G27U G36A | 0.06
U9A A14C U34C G36C C37U | 0.01
U9A A12C G30U U32C | 0.02
U9A C15G C31A | 0.1
U9C A14U G19A A39G | 0.01
